Assay results published in the supplement of paper PMC8813932.
Counter-ions that a name gives are not always drawn. ± gives the standard deviation of the averaged measurements. The list shows a part of the results. Single values are uncertain, as repeats are few or missing.

How the values were obtained:
Assay in all cases: log2 surviving fraction relative to plate median (drug vs vehicle, or drug+dl922-947 vs dl922-947 alone); ovarian cancer lines: OVCAR4 is platinum-sensitive while Ov4Cis resists cisplatin and Ov4Carbo carboplatin; higher = more cell survival
Settings in all cases: compound concentration: 10 uM, 192 h
[1] = test system: OVCAR4
[2] = test system: Ov4Carbo
[3] = test system: Ov4Cis
[4] = dl922-947 oncolytic adenovirus co-treatment: MOI 10
[5] = dl922-947 oncolytic adenovirus co-treatment: none

SMILES | log2 surviving fraction [1, 4] | log2 surviving fraction [1, 5] | log2 surviving fraction [2, 4] | log2 surviving fraction [2, 5] | log2 surviving fraction [3, 4] | log2 surviving fraction [3, 5]
Cc1cc(NC(=O)C2=C(O)c3ccccc3S(=O)(=O)N2C)no1 [Isoxicam] | 0.447 ± 0.15 | -0.357 ± 0.16 | -0.016 | -0.13 | -0.0919 | 0.0909
Nc1ccn([C@@H]2O[C@H](CO)[C@@H](O)[C@@H]2O)c(=O)n1 [Cytarabine] | -4.4 ± 2 | -4.73 ± 1.3 | -3.57 | -4.64 | -5.32 | -7.53
CCCCCCCCCCCCCCCCO [1-Hexadecanol] | -0.361 ± 1.1 | -0.232 ± 0.78 | 0.189 | -5.67 | -1.37 | -0.294
CCC(CC)[C@H](NC(C)=O)[C@@H]1[C@H](O)[C@@H](C(=O)O)C[C@H]1NC(=N)N [Peramivir Trihydrate] | -0.252 ± 1.5 | 0.251 ± 0.28 | 0.171 | -0.295 | 0.074 | 0.722
Clc1ccc(COC(Cn2ccnc2)c2ccc(Cl)cc2Cl)cc1 (stereo not given) [Econazole nitrate (Spectazole)] | -1.85 ± 0.077 | -2.97 ± 0.048 | -1.59 | -4.44 | -2.03 | -1.54
Cc1cn([C@H]2C=C[C@@H](CO)O2)c(=O)[nH]c1=O [Stavudine] | 0.17 ± 1.3 | -0.124 ± 0.43 | 0.496 | 1.2 | -0.595 | -1.03
Oc1ccc(OC2CCCCO2)cc1 (stereo not given) [Deoxyarbutin] | -1.13 ± 0.029 | -2.17 ± 0.56 | -2.85 | -3.05 | -4.62 | -0.267
Cc1ccnc2c1NC(=O)c1cccnc1N2C1CC1 [Nevirapine (Viramune)] | -0.596 ± 0.65 | -0.508 ± 0.35 | 1.37 | 1.59 | -1.63 | -0.195
CC1=CC(=O)c2ccccc2C1=O [Menadione] | 0.692 ± 0.65 | -0.448 ± 0.81 | 0.119 | -0.271 | -0.348 | 0.427
O=c1oc2cc(O)ccc2s1 [Tioxolone] | 0.163 ± 0.32 | 0.217 ± 0.28 | -0.809 | -0.94 | 0.723 | 0.508
CC(C)(C)c1cc(C(C)(C)C)c(NC(=O)c2c[nH]c3ccccc3c2=O)cc1O [Ivacaftor (VX-770)] | -1.29 ± 0.057 | -7.8 ± 4.6 | -0.0134 | -11.2 | -4.31 | -11.7
C[C@H](N)[C@H](O)c1cccc(O)c1 [Metaraminol Bitartrate] | -0.353 ± 2.2 | -0.201 ± 1 | 0.469 | 1.39 | -1.33 | -0.762
CCOc1nc2cccc(C(=O)OC(C)OC(=O)OC3CCCCC3)c2n1Cc1ccc(-c2ccccc2-c2nn[nH]n2)cc1 (stereo not given) [Candesartan cilexetil (Atacand)] | -0.101 ± 0.57 | -0.25 ± 0.83 | -0.076 | -0.946 | 0.221 | -0.378
CCCCC(=O)N(Cc1ccc(-c2ccccc2-c2nnn[nH]2)cc1)[C@H](C(=O)O)C(C)C [Valsartan (Diovan)] | -0.0552 ± 0.27 | 0.359 ± 0.42 | 0.436 | -1.7 | 0.408 | -0.152
C[C@@]12C[C@@]3(O)O[C@@H](O1)[C@]1(COC(=O)c4ccccc4)[C@H]3C[C@@]12O[C@@H]1O[C@H](CO)[C@@H](O)[C@H](O)[C@H]1O [Paeoniflorin] | 0.261 ± 0.81 | 1.11 ± 0.76 | -0.66 | 0.601 | 1.41 | 1
Nc1nc(O)c2ncn(CCC(CO)CO)c2n1 [Penciclovir] | -0.0173 ± 0.88 | -0.247 ± 1.1 | 0.91 | -4.9 | -1.41 | -1.29
Cc1c(OCC(F)(F)F)ccnc1C[S@@+]([O-])c1nc2ccccc2[nH]1 [Dexlansoprazole] | -0.363 ± 0.25 | -2.08 ± 0.5 | 0.147 | -2.49 | -0.396 | -1.55
Nc1ccc(/N=N/c2ccccc2)c(N)n1 [Phenazopyridine HCl] | 0.247 ± 0.74 | -0.852 ± 0.66 | 0.452 | 0.233 | 1.06 | 0.617
COc1cc2c(cc1OC)[C@@]13CCN4CC5=CCO[C@H]6CC(=O)N2[C@H]1[C@H]6[C@H]5C[C@H]43 [Brucine] | -0.00544 ± 1.1 | 0.581 ± 1.9 | 1.17 | 0.741 | -0.0962 | 0.263
CN1CCC[C@H]1c1cccnc1 [Nicotine Ditartrate] | 0.343 ± 0.7 | -0.485 ± 1.6 | -0.763 | 0.521 | 1.3 | 0.167
Clc1cccc(Cl)c1NC1=NCCN1 [Clonidine hydrochloride (Catapres)] | 1.33 ± 0.8 | 0.348 ± 0.23 | 0.858 | 1.55 | 0.925 | 0.711
N#Cc1c(N(CC(=O)O)CC(=O)O)sc(C(=O)O)c1CC(=O)O [Strontium ranelate (Protelos)] | -0.166 ± 0.85 | 0.288 ± 1.4 | -0.0275 | 0.00723 | 0.377 | 0.138
CN(C)C/C=C/C(=O)Nc1cc2c(Nc3ccc(F)c(Cl)c3)ncnc2cc1O[C@H]1CCOC1 [Afatinib (BIBW2992)] | -3.07 ± 3.1 | -10.8 ± 5 | -7.87 | -14.3 | -4.26 | -11.8
CS(=O)(=O)c1ccc(C(=O)Nc2ccc(Cl)c(-c3ccccn3)c2)c(Cl)c1 [Vismodegib (GDC-0449)] | 0.916 ± 0.16 | 0.566 ± 0.2 | 0.667 | 1.4 | 0.791 | 0.628
COc1ccc(C(=O)N2CCCC2=O)cc1 [Aniracetam] | 0.521 ± 0.28 | 0.799 ± 0.56 | 0.595 | 1.33 | 0.594 | 0.578
